From paper PMC6919601, “Identification of Plasmodium dipeptidyl aminopeptidase allosteric inhibitors by high throughput screening” (PLoS ONE, 2019)
The campaign covered roughly 110,000 compounds. About 230 (0.21%) showed an effect of 50% or more. The list shows a part of the results.

What follows are compounds tested against DPAP1 (Plasmodium falciparum, UniProt Q8IIJ9) (assay: primary screen, percent inhibition; read by cleavage of a fluorogenic dipeptide substrate; higher = more effect of the substance).
Sequence of DPAP1 (Q8IIJ9 whole entry, looked up): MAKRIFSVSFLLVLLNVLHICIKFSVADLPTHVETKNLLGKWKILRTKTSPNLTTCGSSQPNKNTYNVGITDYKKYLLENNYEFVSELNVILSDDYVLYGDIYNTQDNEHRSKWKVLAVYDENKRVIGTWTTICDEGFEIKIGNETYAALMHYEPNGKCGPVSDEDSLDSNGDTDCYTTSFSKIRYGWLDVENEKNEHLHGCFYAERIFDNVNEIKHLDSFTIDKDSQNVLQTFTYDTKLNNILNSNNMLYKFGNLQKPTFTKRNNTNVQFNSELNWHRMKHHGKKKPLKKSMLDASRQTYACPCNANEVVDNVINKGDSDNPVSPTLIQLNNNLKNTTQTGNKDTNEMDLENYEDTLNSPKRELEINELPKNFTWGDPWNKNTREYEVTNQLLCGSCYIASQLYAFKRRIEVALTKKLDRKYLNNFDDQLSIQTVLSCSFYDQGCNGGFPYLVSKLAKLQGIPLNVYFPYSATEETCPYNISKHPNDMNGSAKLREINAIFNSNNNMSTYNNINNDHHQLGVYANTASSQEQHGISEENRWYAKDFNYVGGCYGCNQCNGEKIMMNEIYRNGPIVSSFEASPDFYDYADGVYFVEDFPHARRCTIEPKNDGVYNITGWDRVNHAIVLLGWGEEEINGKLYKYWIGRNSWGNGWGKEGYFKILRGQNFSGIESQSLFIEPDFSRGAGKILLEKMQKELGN
Design: species or system P. falciparum D10 trophozoite lysates; single well
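Further: 30 min substrate incubation versus DMSO and 10 µM JCP410 controls.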

Row | SMILES | % Inhibition @ 10 uM [%]
1 | C=CCSC1=C(C#N)C(c2cccc(OC)c2)CC(=O)N1 (stereo not shown) | -1.64
2 | CC1CC(C)CN(C(=O)CCCNS(=O)(=O)c2cccc3nsnc23)C1 (stereo not shown) | 2
3 | Cc1cccc(NC(=O)C(Cc2ccccc2)NS(=O)(=O)c2cccc3nsnc23)n1 (stereo not shown) | 0.317
4 | CCCCC(=O)Nc1sc2c(c1C#N)CCCCC2 | 3.65
5 | CC1CC(C)CN(c2oc(-c3ccc(F)cc3)nc2C#N)C1 (stereo not shown) | 0.315
6 | COCCNC(=O)c1c(C)nn(-c2ccc(F)cc2)c1-n1cccc1 | -4.08
7 | Cc1ccc2c(c1)-c1onc(C(=O)NCCC3=CCCCC3)c1CO2 | -3.17
8 | CCOc1cccc(C(=O)Nc2nnc(C34CC5CC(CC(C5)C3)C4)s2)c1 | -0.142
9 | N#Cc1c(N)nc2c(c1-c1ccccc1Cl)CCCCC2 | 4.51
10 | O=C(NCC1COc2ccccc2O1)C1COc2ccccc2O1 (stereo not shown) | -1.32
11 | COc1ccc(CC(C)NCc2ccc(Cl)c(Cl)c2)cc1 (stereo not shown) | 0.472
12 | O=C(CCC(=O)N1Cc2ccccc2Oc2ncccc21)NCc1ccccc1F | 1.63
13 | Clc1ccc(-c2csc(Nc3ccc4c(c3)OCO4)n2)cc1 | 2
14 | Cc1ccccc1CN1CCCC(CO)C1 (stereo not shown) | -0.833
15 | Oc1ccc(Cl)cc1-c1cc(-c2ccc(Br)cc2)[nH]n1 | -0.233
16 | Cc1ccc(Cn2nnc3c(=O)n(CC(=O)NCc4ccc(F)cc4)cnc32)cc1 | -0.431
17 | CCOC(=O)c1sc(N2N=C(C)/C(=C\C=C\c3ccco3)C2=O)nc1C | -6.44
18 | Cc1ccc(Sc2c(C(=O)NCCN(C)C)[nH]c3ccccc23)cc1 | -4.09
19 | CN(Cc1ccccc1)C(=O)CN(c1ccc(F)cc1)S(=O)(=O)c1ccccc1 | -7.01
20 | O=C1ON=C(c2ccccc2)/C1=C\c1ccc(OCc2ccccc2)cc1 | -2.14
21 | Cc1ccc(NCN2C(=O)C3CC=CCC3C2=O)cc1Cl (stereo not shown) | 2.27
22 | CC(NS(=O)(=O)c1ccc(OCC(=O)NC2CC2)cc1)c1ccccc1 (stereo not shown) | -2.58

Row | SMILES | % Inhibition @ 10 uM [%]
23 | Cc1ccc(C(=O)Nc2nonc2NC(=O)c2ccc(C)cc2)cc1 | 6.37
24 | Cc1ccc(N2C(=O)C(Cl)=C(NCCO)C2=O)c(C)c1 | -2.78
25 | Cc1cc(=O)oc2c(C)c3oc4c(c3cc12)CCCC4 | 2.21
26 | O=C(/C=C\c1cccs1)CC(O)(c1ccccc1)C(F)(F)F (stereo not shown) | 1.88
27 | CCn1c2ccccc2c2cc(CNc3cccc(OC)c3)ccc21 | -1.82
28 | CCC(C)NC(=O)C1CCN(C(=O)C2CCN(S(=O)(=O)c3ccc(C)cc3)CC2)CC1 (stereo not shown) | 3.66
29 | COc1ccc(OC)c(CCNC(=O)c2ccc(CS(=O)Cc3ccc(Cl)cc3)o2)c1 (stereo not shown) | 1.77
30 | CN(Cc1ccccc1)C(=O)c1ccc(C/N=c2/c(N3CCCC3)c(O)c2=O)cc1 | 5.91
31 | CCOc1ccc(-c2nc(SCC(=O)Nc3nccs3)c(-c3ccccc3)[nH]2)cc1 | 1.85
32 | COc1cccc(C2CC(=O)Nc3cc4c(cc32)OCO4)c1OC (stereo not shown) | 0.475
33 | CCCNC(=O)CN(c1ccc(C)cc1)S(=O)(=O)c1ccc(F)cc1 | -1.38
34 | CC1CCN(c2c(NCc3ccc(C(=O)NCC4COc5ccccc5O4)cc3)c(=O)c2=O)CC1 (stereo not shown) | 3.07
35 | COC(=O)c1ccc(-c2ccc(/C=C3\C(=O)N=C(N)N3C)o2)cc1 | -3.21
36 | CC1(C)CC(=O)c2cc(C(N)=O)c(=O)n(-c3ccccc3)c2C1 | 0.219
37 | Cc1nc2c(c(C)nn2C)c(C)c1CCC(=O)NCc1ccccc1 | 2.37
38 | COc1cccc(CN(C(=O)COc2cc(C)c(Cl)c(C)c2)C2CCS(=O)(=O)C2)c1 (stereo not shown) | 2.02
39 | Cc1[nH]c(SCC(=O)Nc2sc3c(c2C#N)CCCC3)nc1Cc1ccc(O)cc1 | -0.92
40 | O=C(Nc1ccccc1F)c1ccc([N+](=O)[O-])cc1 | 3.53
41 | CCN(CC)S(=O)(=O)c1ccc(S(=O)(=O)c2ccc(S(=O)(=O)N(CC)CC)cc2)cc1 | -1.43
42 | COc1ccccc1OCCCC(=O)Nc1ccc(C)c(C)c1 | -2.09
43 | O=C1CC(C(=O)Nc2ccc(Cl)cc2Cl)C(c2ccccc2)O1 (stereo not shown) | -0.999
44 | CCOC(=O)N1CCC(NC(=O)CN(C)S(=O)(=O)c2cccc3nsnc23)CC1 | 1.79

Row | SMILES | % Inhibition @ 10 uM [%]
45 | CC(CCc1ccccc1)N[C@H]1CCCCNC1=O (stereo partly shown) | 0.217
46 | Cc1cc(/C=C(\C#N)c2nc3ccccc3[nH]2)c(C)n1-c1ccc(F)cc1 | 2.18
47 | Fc1ccc(CN2CCN(c3ccccc3F)CC2)cc1Br | 3.25
48 | CCOC(=O)NC(C)C1CC2CCC1C2 (stereo not shown) | -2.98
49 | Clc1ccc(OC2=C(c3ccccc3)N3CCN=C3S2)cc1 | 1.38
50 | CCOc1ccc(-c2nc(CSCC(=O)NC(C)c3ccccc3)c(C)o2)cc1 (stereo not shown) | 2.35
51 | Sc1nnc2n(Cc3ccccc3)c3ccccc3n12 | 9.05
52 | Cc1ccccc1Cn1nc(C)c(NC(=O)c2cc(C3CC3)on2)c1C | 0.0221
53 | O=C(/C=C/c1ccco1)NCc1ccc2c(c1)OCO2 | -5.03
54 | CCOc1cc(CN2CCN(c3ccc(OC)cc3)CC2)ccc1O | -0.0404
55 | Cc1nn(-c2ccc(F)cc2)c(-n2cccc2)c1C(=O)NCCCOC(C)C | -1.43
56 | CC1(c2ccccc2)NCCN2C(=O)CSC21 (stereo not shown) | -8.21
57 | O=C(CN1Cc2ccccc2C1=O)NCCN1CCOCC1 | -5.25
58 | Cn1c(=O)[nH]c(=O)c2c1nc(NCCCN1CCOCC1)n2CCCc1ccccc1 | -3.28
59 | CC(=O)Nc1ccc(NC(=O)C2C3CCC(C3)C2C(=O)O)cc1 (stereo not shown) | 4.08
60 | COc1ccc(S(=O)(=O)N2CCSC2c2ccc(C)cc2)cc1 (stereo not shown) | -3.45
61 | Brc1cnc(OCc2ccccc2)nc1OCc1ccccc1 | 2.55
62 | COc1ccc2c(c1)CC/C2=N\OC(=O)c1ccccc1C | 4.74
63 | COCCNC(=O)c1nnc(Cc2ccc(OC)c(OC)c2)o1 | -5.63
64 | C/C(O)=C\C(C)=N\c1ccc(-c2cnc(-c3ccccc3)o2)cc1 | -6.99
